Out of some 50,000 compounds screened, about 800 (1.6%) showed an effect of 50% or more. This is one part of the list.
What follows are compounds tested against Bcl-2-like protein 10 (Homo sapiens) (UniProt Q9HD36) (assay: Phenotype converters, Bcl-B/TR3 peptide binding displacement, primary biochemical FP (AID 1240;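 further: 0% = Bcl-B with tracer peptide and DMSO and 100% = tracer peptide lacking Bcl-B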)). Details: GST-Bcl-B / FITC-TR3 peptide fluorescence polarization; stronger effect = higher value; compound at 3.75 mg/L.
Chain of UniProt Q9HD36 (Q9HD36 whole entry, looked up): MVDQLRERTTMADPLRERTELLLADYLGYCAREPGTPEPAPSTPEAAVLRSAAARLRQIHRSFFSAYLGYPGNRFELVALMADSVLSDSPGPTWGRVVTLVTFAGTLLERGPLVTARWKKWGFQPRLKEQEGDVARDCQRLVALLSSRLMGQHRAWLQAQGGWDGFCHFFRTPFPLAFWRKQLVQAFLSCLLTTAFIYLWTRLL

SMILES	displacement [%]
COc1cc(C=C2C(=O)NC(=S)NC2=O)ccc1OCc1ccc(C(=O)O)cc1	5.5
Fc1ccc(-c2nnc(-c3ccco3)o2)cc1	14
CCOc1ccc(N(CC(=O)Nc2ccccc2OCC)S(C)(=O)=O)cc1	-2.2
O=C(/C=C/c1ccc([N+](=O)[O-])cc1)Nc1ccccc1Cl	1.7
CCOC(=O)C1=C(c2ccccc2)N=C2SCC(=O)N2C1c1ccccc1OC (centres undefined)	-1.7
CCN(C(=O)c1ccccc1[N+](=O)[O-])c1ccccc1	-4.8
CCOc1cccc(C2C(C(=O)OC)=C(C)NC3=C2C(=O)CC(C)(C)C3)c1 (centres undefined)	-6
O=C(c1cccnc1)N1CCN(CCN2C(=O)C3C4C=CC(C4)C3C2=O)CC1 (centres undefined)	-0.2
COc1cccc(OCCNC(=O)c2cc(OC)c(OC)c(OC)c2)c1	11.6
O=c1[nH]c(=S)[nH]c2c1C1(CCCC1)Cc1ccccc1-2	-4.2
CCOC(=O)c1ccc(Nc2c(N)c(=O)oc3ccccc23)cc1	-8
O=C1C2CCCCC2C(=O)N1c1nc2ccccc2s1 (centres undefined)	9.8
Cc1ccc(C(=O)N/C(=C\c2sccc2C)C(=O)NCCCN2CCOCC2)cc1	3.4
O=C1Nc2ccccc2C1(O)C/C(=N/O)c1ccc(Cl)cc1 (centres undefined)	10.3
COc1cccc(C(=O)Nc2ccc3c(c2)OCCO3)c1	3.8
COc1ccc(-c2noc(/C=C/c3ccccc3)n2)cc1	19.1
COc1ccc(C(=O)N2CCN(C(=O)c3ccccc3F)CC2)cc1	5.9
O=C(CCNS(=O)(=O)c1ccccc1[N+](=O)[O-])Nc1ccc(I)cc1	11.7
COc1ccc(CC(Cc2nc3ccccc3[nH]2)c2nc3ccccc3[nH]2)cc1 (centres undefined)	-0.7
CCOc1ccc(NC(=O)CCC(=O)NCCO)cc1	-1.9
Cc1nc2c(C)c(-c3ccccc3)[nH]n2c(=O)c1C	5.5
COC(=O)C1=CNC=C(C(=O)OC)C1c1cccc(OC)c1OC	-0.6
Cc1ccc(C)c(Nc2nc(-c3ccncc3)nc3ccccc23)c1	-6.2
COc1ccc2ccccc2c1C1NC(=S)NC(C)=C1C(=O)Nc1ccccc1C (centres undefined)	-3.2
Cc1ccc(NC(=O)C2C3CC/C=C\CC/C=C/CCC32)cc1C (centres undefined)	-4.4
CCCCOc1ccc(/C=C2\SC(=S)N(CCC(=O)OC)C2=O)cc1OC	54.1
CC1(C)Cc2ccccc2-c2nnc(-c3ccccc3Cl)n21	2.9

SMILES	displacement [%]
Cc1oc2ccc(OS(C)(=O)=O)cc2c1C(=O)OC(C)C	9.4
Cc1cccc(N/C=C/C(=O)c2ccc(Br)cc2)n1	-10.3
COc1cc(/C=C2/SC(=S)NC2=O)ccc1OS(=O)(=O)c1ccccc1[N+](=O)[O-]	-4.7
Cc1ccccc1P(=O)(CO)c1ccccc1C	-15.8
COc1cc(/C=N\N2CCN(Cc3ccc(C)cc3)CC2)cc(Br)c1O	14.6
Cc1ccc(NC(=O)c2c(-c3ccccc3)noc2C)cc1C	-5.8
CN(C(=O)Cc1ccccc1)c1ccccc1	13.5
COc1ccc(C)cc1NC(=O)C(=O)NCC(C)C	-2.2
O=C(NCc1ccccc1)c1nn2c(C(F)(F)F)cc(-c3cccs3)nc2c1Cl	15.4
Oc1c(Br)cc2oc3c(c2c1/C=N/c1ncn[nH]1)CCCC3	8.5
CCn1c2ccccc2c2cc(CN3CCN(Cc4ccc(OC)c(Br)c4)CC3)ccc21	-12.3
COc1ccc(CCN2C(=O)C(C)C(Cc3ccc(C)cc3)C2=O)cc1OC (centres undefined)	14.1
CC(=O)CSc1sc(=S)sc1SCC(C)=O	-17
O=S(=O)(Nc1ccccn1)c1ccc(-c2ccccc2)cc1	-5.1
Cc1ccc(C(=O)NC(Nc2ccc(F)cc2)C(Cl)(Cl)Cl)cc1 (centres undefined)	-5.1
CCc1cc(C)nc2cc(-c3ccccc3)nn12	-8.1
CC1(C)CC(=O)C2=C(C1)NC1=C(C(=O)CC(C)(C)C1)C2c1ccccc1Cl	1.8
CC(=NCCN1CCNCC1)C1=C(O)CC(C)(C)CC1=O	-4.3
CC1=NN(c2cccc(C(=O)O)c2)C(=O)/C1=C\c1ccc2c(c1)OCO2	0.3
CCOC(=O)C1=C(C)N=c2s/c(=C\c3ccccn3)c(=O)n2C1c1ccc(OC)c(OC)c1 (centres undefined)	42.1
Cc1cc(/C=C2\C(=O)NC(=O)N(c3cccc(F)c3)C2=O)c(C)n1-c1cccnc1	24.3
Cc1cccc(OCCNc2cc(N3CCN(C)CC3)ccc2[N+](=O)[O-])c1	-0.7
CCOc1cc(/C=N\NC(=O)c2ccccc2Cl)cc([N+](=O)[O-])c1O	9.4
COc1cc(CN2CCN(Cc3ccc(Cl)cc3)CC2)cc(OC)c1O	4.5
CCOc1ccc(/C=C2/SC(=S)N(CC(=O)O)C2=O)cc1	12.7
Cc1ccccc1C1(c2ccccc2C)CC1C(=O)Nc1cccc([N+](=O)[O-])c1 (centres undefined)	-0.7
O=C1NC(=S)NC(=O)C1=Cc1ccc(OCc2ccc3ccccc3c2)c(Br)c1	-15.1
